From PubChem BioAssay AID485344 (National Center for Advancing Translational Sciences (NCATS), 2010) come the findings set out here.

About 6,900 (2%) of roughly 340,000 compounds were called active. Cut-off read from the data, not from the text of the source: active = inhibition above about 30%; inactive = below that, where a call was filed. The list shows a part of the results, in another mix than the full data. The source gives no active or inactive call for entries shown without one.

Broadly, the inhibition is the change of the read-out against control, counted positive when it falls.

Sequence of UniProt P14416 (P14416 whole entry, looked up): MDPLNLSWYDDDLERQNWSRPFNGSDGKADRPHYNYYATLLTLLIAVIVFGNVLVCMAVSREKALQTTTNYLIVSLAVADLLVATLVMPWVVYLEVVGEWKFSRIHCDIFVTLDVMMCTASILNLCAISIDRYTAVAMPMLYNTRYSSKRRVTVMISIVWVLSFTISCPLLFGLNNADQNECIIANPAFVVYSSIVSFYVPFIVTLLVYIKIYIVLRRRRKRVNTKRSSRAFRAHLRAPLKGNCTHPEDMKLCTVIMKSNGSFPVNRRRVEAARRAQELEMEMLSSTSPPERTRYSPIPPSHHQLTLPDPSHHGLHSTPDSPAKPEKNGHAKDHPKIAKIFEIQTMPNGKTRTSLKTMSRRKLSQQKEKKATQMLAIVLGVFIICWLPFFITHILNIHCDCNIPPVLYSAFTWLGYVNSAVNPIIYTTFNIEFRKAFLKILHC

The test addresses D(2) dopamine receptor (Homo sapiens) (UniProt P14416). In words: HTS Assay for Allosteric Antagonists of the Human D2 Dopamine Receptor: Primary Screen for Antagonists. Note: 0% is about no effect. The note with it: HEK293 TREx D2 cells, calcium flux, dopamine EC80; at 10 µM; stronger effect = higher value. The gist of the method:
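Inhibition of EC80 dopamine-driven calcium flux, recorded kinetically, defines activity here; cells are a tetracycline-induced HEK293 T-REx line expressing force-coupled D2.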
On the technique in general: Calcium flux is commonly read through the fluorescence of an indicator in the cells.
Consider `COc1ccc(-c2nc(-c3ccncc3)no2)c(OC)c1`, for which the inhibition is active: 57.8%.
For `COc1cccc(NC(=O)CSc2nc(=O)n(Cc3ccco3)c3c2CCC3)c1` the value was -17.1%; for `CCC(CC)c1nn2c(=O)cc(COc3ccc(NC(=O)c4ccc(C)cc4)cc3)nc2s1`, 1.45%.
Turning to `Cc1nn(C(=O)c2ccc(Cl)cc2)c(C)c1S(=O)(=O)N1CCOCC1`, the inhibition was determined as 0.331%.
For `COc1ccc(NC(=O)CC2C(=O)N(c3cccc(C)c3)C(=O)N2Cc2cccnc2)cc1` (stereo unspecified) the value was -1.18%; for `CCc1ccc(CNC(=O)CN2C(=O)CSc3c2c(C)nn3-c2ccccc2)cc1`, -3.21%; for `Cc1cn2c(=O)cc(COC(=O)c3cccc(NC(=O)c4ccccc4Cl)c3)nc2s1`, 6.63%.
For `Cc1ccc(CNc2ncnc3c2nnn3C)cc1` the value was 14.5%; for `O=C1CC(N2CCC(O)(c3ccc(Cl)cc3)CC2)C(=O)N1` (stereo unspecified), active: 31.3%.
For `CCN(C(=O)COC(=O)/C=C/c1nc2ccccc2s1)C1CCS(=O)(=O)C1` (stereo unspecified) the value was active: 31.7%.
In the case of `C/C(=N\NC(=O)c1c(C)nc2ccccn12)c1ccccc1F`, the inhibition was active: 31.5%.
To `O=C(Cn1ncc2c3ccccc3n(Cc3ccc(F)cc3)c2c1=O)NCCC1=CCCCC1` belongs 9.27%.
To `Cc1ccc(C)c(CN2C(=O)c3ccccc3S(=O)(=O)c3ccc(C(=O)NCCCN4CCCC(C)C4)cc32)c1` (stereo unspecified) belongs -7.69%; to `COc1ccc(SCCC(=O)NCc2ccncc2)cc1`, active: 32.1%.
Regarding `CSc1ccc(CCNS(=O)(=O)c2ccc3c(c2)C(C)(C)C(=O)N3C)cc1`, the inhibition turned out to be 0.451%.
To `CC(C)c1ccc(NC(=O)C(C)N(c2ccccc2)S(C)(=O)=O)cc1` (stereo unspecified) belongs -0.691%; to `COc1cc2c(cc1O)C(Cc1ccc(O)cc1)NCC2` (stereo unspecified), active: 74.1%.
To `Cc1ccc(C(c2cccc(Br)c2)c2c(C)[nH]c3ccccc23)s1` (stereo unspecified) belongs 3.71%; to `O=c1c2ccccc2n2c(-c3ccc(Cl)cc3)nnc2n1CCc1ccccc1`, 21%.
For `CCc1ccc(-n2nc(C)c3c(C)cc(=O)n(CC(=O)Nc4ccc(C(C)=O)cc4)c32)cc1` the value was -1.32%.
As for `COCCCNc1nc(NCc2cccc(Cl)c2)c2cnn(C)c2n1`, the inhibition is -4.63%.
To `COc1ccc(-c2nc(CSc3nnc(C)n4c3cc3occc34)c(C)o2)cc1OC` belongs 2.1%; to `COc1cc(OC)c(NC(=O)N2CC3CCCN3c3ccccc32)cc1Cl` (stereo unspecified), -3.52%.
In the case of `CC(C)C(NS(=O)(=O)c1ccc2c(c1)oc(=O)n2C)C(=O)NCCc1ccccc1` (stereo unspecified), the inhibition is -21.6%.
For `COc1ccc(C2C(C(=O)Nc3cccnc3)=C(C)Nc3nc(-c4ccccc4)nn32)cc1OC` (stereo unspecified) the value was -4.35%.
To `O=c1[nH]c(=O)n(C2CCCCC2)c(O)c1C1=Nc2ccccc2SC(c2ccccc2)C1` (stereo unspecified) belongs 13.5%.
Regarding `CN(C)c1ccc(/C=C/c2noc(-c3ccccc3O)n2)cc1`, the inhibition amounted to 12.4%.
To `COc1ccccc1NC(=O)C1=C(C)Nc2nc(SCc3ccccc3Cl)nn2C1c1ccccn1` (stereo unspecified) belongs 12.9%; to `O=C(NC1CC(=O)N(c2ccccc2)C1)c1ccc(S(=O)(=O)N2CCCCC2)cc1` (stereo unspecified), 24.2%; to `Oc1c(CN2CCN(c3ccc(F)cc3)CC2)cc(Cl)c2cccnc12`, active: 49.1%.
Take `Cc1nn2c(C)c(C(=O)NCc3ccco3)cnc2c1-c1ccccc1`: the inhibition was determined as 0.524%.
`Cc1nn(C(=O)c2ccc(Cl)cc2)c(C)c1S(=O)(=O)N1CCCCCC1`: the inhibition worked out at 5.81%.
For `Cc1ccc(N2CCn3c2nc2c3c(=O)n(CCCc3ccccc3)c(=O)n2C)cc1C` the value was -13.8%; for `CCc1ccc(OCC(=O)NNC(=O)c2ccc(NC(=O)C3CC3)cc2)cc1`, active: 30.5%.
For `COc1ccc(-n2nc(C(=O)N3CCCC(C)C3)c3c4ccccc4n(C)c3c2=O)cc1Cl` (stereo unspecified) the value was 8.41%; for `CCOC(=O)c1ccc(NC(=O)CSc2c3c(nc4cc(Cl)ccc24)CCCC3)cc1`, 4.34%; for `COc1cc(OC)c(NC(=O)CCCn2nc(C)c3c(C)n(-c4ccccc4)nc3c2=O)cc1Cl`, 5.58%.
For `CSc1ncc(Cl)c(C(=O)Nc2c(C(=O)Nc3cccc(Cl)c3)oc3ccccc23)n1` the value was 10%.
Regarding `COc1ccc(CNC(=O)CCCN2C(=O)COc3ccc(C)cc32)cc1`, the inhibition is -1.59%.
To `Cc1ccc(N2CCN(C(=O)c3cnc(N4CCCCC4)c4ccccc34)CC2)c(C)c1` belongs 0.0828%.
To `COc1cccc(Cn2nnc3c(=O)[nH]c(C4CCN(C(=O)c5ccccc5Cl)CC4)nc32)c1` belongs -3.67%.
To `CC1=C(C(N)=O)C(c2ccccc2Br)n2ncnc2N1` (stereo unspecified) belongs -22.5%.
Turning to `O=C(NCc1ccccc1Br)c1cnc2sc(N3CCCCCC3)nn2c1=O`, the inhibition came to 4.88%.
For `Cc1cc(C)c(C)c(OCC(O)CN2CCN(c3ccccn3)CC2)c1` (stereo unspecified) the value was active: 91.6%; for `CC(C)CCNC(=O)c1cc2cc(S(=O)(=O)N3CCCCC3)ccc2n1C`, 7.54%; for `CN(C)CCN(C(=O)c1ccc(S(=O)(=O)N2CCc3ccccc32)cc1)c1nc2ccc(F)cc2s1`, active: 68.8%.
To `O=C(Nc1ccc(F)c(Cl)c1)N1CC=C(c2c[nH]c3ccccc23)CC1` belongs -5.93%.
To `O=C(NCCc1ccccc1Cl)c1sc2ncccc2c1-n1cccc1` belongs -22.6%.
Consider `CCC(=O)N1c2ccccc2CC1C(=O)NCCc1ccccc1` (stereo unspecified), for which the inhibition amounted to 0.191%.
For `COc1ccc2sc(N(Cc3cccnc3)C(=O)c3ccc4c(c3)OCCO4)nc2c1` the value was 1.56%; for `COc1ccc(NC(=O)CCOc2ccccc2)c(OC)c1`, active: 35.9%.
To `CCCCN(CC)CCCNC(=O)c1cc2c(=O)[nH]c3ccccc3c2n1C` belongs -7.83%.
Regarding `COc1ccc(NC(=O)CCCSc2nc(-c3ccco3)cc(C(F)(F)F)n2)cc1OC`, the inhibition worked out at 9.41%.
To `COC(=O)c1[nH]c2cccc(OC)c2c1NC(=O)CCN1CCN(c2ccccc2F)CC1` belongs active: 73.6%.
To `COc1cccc(-c2nc(S(=O)(=O)c3ccc(Cl)cc3)c(NCc3ccccc3)o2)c1` belongs 13.6%; to `CC(=O)Nc1ccc(NS(=O)(=O)c2c(C(=O)N3CCC(C)CC3)c(C)n(C)c2C)cc1`, -0.133%; to `COc1cccc(C(=O)Nc2cccc(OCc3cc(=O)n4c5c(sc4n3)CCCC5)c2)c1`, -4.02%.
As for `COc1ccc2oc(=O)c(C(=O)NCCc3c(C)[nH]c4ccc(F)cc34)cc2c1`, the inhibition was determined as 6.18%.
On to `CCOc1ccc(CCNC(=O)CN2CCN(Cc3ccc(Cl)cc3)C2=O)cc1OCC`, for which the inhibition came out at 4.85%.
To `COc1cccc(NC(=O)C(=O)NCC(c2ccc3c(c2)OCO3)N2CCN(C)CC2)c1` (stereo unspecified) belongs 9.95%; to `CCc1ccc(N(CC)C(=O)c2cc3c(=O)oc4ccc(C)cc4c3s2)cc1`, -6.51%.
